# Results from PubChem BioAssay AID2147 (National Center for Advancing Translational Sciences (NCATS), 2009).
# About 3,600 (1.6%) of roughly 230,000 compounds were called active. The inconclusive results got no clear call from the source; some entries with a clear call stand among them for comparison. Calls come from the whole dose curve; as a rule, active = well fitted inhibition curve with a large enough effect (not every such curve was filed as active); inconclusive = small, poorly fitted or top-dose-only effect, or another doubt; inactive = no such curve, though single readings can be large or run the other way. Potencies beside an inconclusive call are fits to weak or partial responses and may not hold up.
# Molecular target: Lysine-specific demethylase 4E (Homo sapiens) (UniProt B2RXH2)
# UniProt B2RXH2, sequence (B2RXH2 whole entry, looked up, the tested form may be a part): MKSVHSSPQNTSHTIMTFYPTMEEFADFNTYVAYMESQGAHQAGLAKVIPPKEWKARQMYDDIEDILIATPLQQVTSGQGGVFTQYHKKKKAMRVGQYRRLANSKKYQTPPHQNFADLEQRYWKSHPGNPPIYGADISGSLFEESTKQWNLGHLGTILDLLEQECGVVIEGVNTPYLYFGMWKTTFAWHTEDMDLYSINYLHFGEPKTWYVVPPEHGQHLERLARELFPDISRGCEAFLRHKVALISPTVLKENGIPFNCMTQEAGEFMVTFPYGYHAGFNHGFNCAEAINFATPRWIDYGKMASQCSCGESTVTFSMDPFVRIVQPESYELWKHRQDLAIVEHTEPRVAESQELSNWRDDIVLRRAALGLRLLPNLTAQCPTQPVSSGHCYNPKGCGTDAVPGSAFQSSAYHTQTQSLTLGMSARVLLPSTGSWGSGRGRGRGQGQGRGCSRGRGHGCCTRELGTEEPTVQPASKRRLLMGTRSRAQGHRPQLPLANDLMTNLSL
# Assay: qHTS Assay for Inhibitors of Human Jumonji Domain Containing 2E (JMJD2E)
# Details: JMJD2E catalytic domain, FDH-coupled NADH fluorescence (FDH is formaldehyde dehydrogenase); series mostly up to 57.1 µM
# Note: nearly all actives have a fitted effect of over 50% in size.
# Potency is the fitted concentration of half-maximal effect; tags give direction and shape of the fitted curve.
row,Structure (SMILES),Potency
1,COc1cccc2cc(C(=O)N3CCCCC3C)c(=O)oc12 (centres undefined),"inconclusive: 39.8 µM [inhibitor, single point]"
2,Cc1ccc(/C=C/C(=O)Nc2nnc(C)s2)o1,"inconclusive: 31.6 µM [inhibitor, partial curve]"
3,Clc1ccc(Sc2cnc3ccccc3n2)cc1,inactive
4,CC(C)/C=N/Nc1nc2c(c(=O)n(C)c(=O)n2C)n1C,inactive
5,Cc1cc(C)c(N)c(C(=O)O)c1,"inconclusive: 28.2 µM [inhibitor, partial curve]"
6,CCOc1ccc(/C=C/C(=O)CCC(=O)O)cc1,"inconclusive: 39.8 µM [inhibitor, single point]"
7,COc1ccc(C2CC(c3cccs3)=NN2C(=O)CSc2nc3ccccc3s2)cc1 (centres undefined),"inconclusive: 31.6 µM [inhibitor, partial curve]"
8,CC(C)(C)C(=O)Nc1cccc(-c2ncon2)c1,inactive
9,Cn1c(N)c(N2CCCCC2)c(=O)n(CC(=O)Nc2ccc(Cl)c(Cl)c2)c1=O,inactive
10,CC(C)NC(=S)NN=C1CCC(c2ccccc2)CC1 (centres undefined),inactive
11,O=S(=O)(Nc1nc(CN2CCOCC2)nc2sc3c(c12)CCCC3)c1cc(F)ccc1F,"inconclusive: 35.5 µM [inhibitor, single point]"
12,Cc1ccc(-c2cn3cccnc3n2)cc1NC(=O)c1ccc(Br)o1,"inconclusive: 28.2 µM [inhibitor, partial curve]"
13,O=C(CSc1nc2ncccc2[nH]1)c1cccc([N+](=O)[O-])c1,inactive
14,COCCNC(=O)Cc1ccc(Br)cc1,"inconclusive: 39.8 µM [inhibitor, single point]"
15,CCOC(=O)c1cnn2c1[nH]c(=O)c1ccccc12,"inconclusive: 31.6 µM [inhibitor, partial curve]"
16,CC1CCN(C(c2cc3cc4c(cc3[nH]c2=O)OCO4)c2nnnn2CC2CCCO2)CC1 (centres undefined),"inconclusive: 8.91 µM [inhibitor, full curve]"
17,CN1CCCC1=Nc1c2c(nc3ccccc13)N(C)CC2,"inconclusive: 8.91 µM [inhibitor, full curve]"
18,CC1(C)C(=O)C2C[C@]3(O)C4=CC(=O)OC(c5ccoc5)[C@]4(C)CCC3[C@](C)(C2=O)C1CC(=O)O (some centres undefined),inactive
19,COc1ccccc1NC(=O)c1nnn(Cc2ccccc2)c1NC(=O)C(F)(F)F,"inconclusive: 39.8 µM [inhibitor, single point]"
20,COCCCn1c(SCC(=O)Nc2ccc3c(c2)OCCO3)nnc1-c1ccoc1C,"inconclusive: 35.5 µM [inhibitor, single point]"
21,O=C(c1cccc(Br)c1)c1conc1C(=O)c1ccco1,inactive
22,COc1ccc2c(c1OC)C(=O)OC2Nc1nc(-c2cc3cc([N+](=O)[O-])ccc3oc2=O)cs1 (centres undefined),"inconclusive: 39.8 µM [inhibitor, single point]"
23,O=C(CCCCCn1c(=S)[nH]c2ccc(N3CCOCC3)cc2c1=O)NCc1ccccc1,"inconclusive: 22.4 µM [inhibitor, partial curve]"
24,Cc1cccc(Cc2c(C)nc3c(C(=O)NCc4ccco4)cnn3c2C)c1,"inconclusive: 31.6 µM [inhibitor, partial curve]"
25,CC(C)(CO)CNC(=O)CC1C(=O)NCCN1CC(c1ccccc1)c1ccccc1 (centres undefined),"inconclusive: 28.2 µM [inhibitor, single point]"

row,Structure (SMILES),Potency
1,COc1ccc(OC)c(/C=C/C(=O)Nc2ccc(OC)nc2)c1,"inconclusive: 31.6 µM [inhibitor, single point]"
2,O=C1c2ccccc2C(=O)C12OC2c1cccc2ccccc12 (centres undefined),"inconclusive: 6.31 µM [inhibitor, single point]"
3,CCN(CC)c1nc2ccccc2nc1C(C#N)C(=O)NCCCOC (centres undefined),"inconclusive: 25.1 µM [inhibitor, partial curve]"
4,COc1ccccc1-c1cn[nH]c1-c1ccc(OCc2ccc([N+](=O)[O-])cc2)cc1O,inactive
5,Cc1nc2c(C(=O)NCc3ccco3)cnn2c(C)c1Cc1ccc(F)cc1Cl,"inconclusive: 31.6 µM [inhibitor, partial curve]"
6,COc1cc(C(=O)Sc2ccc(C)cc2)cc(OC)c1OC,inactive
7,COc1cc(/C=C2/CCCC(C(=O)C(F)(F)F)=C2O)ccc1O,"inconclusive: 28.2 µM [inhibitor, single point]"
8,CCn1c(CCCCc2n[nH]c(=S)n2CC)n[nH]c1=S,"inconclusive: 35.5 µM [inhibitor, single point]"
9,CCC(C)NCCOCCOc1ccc(C)cc1OC (centres undefined),"inconclusive: 25.1 µM [inhibitor, single point]"
10,Cc1ccc(NC(=O)CNc2cccc(C)c2C)c(C)c1,inactive
11,COc1ccc(OC)c(/C=N/n2c(-c3n[nH]c4c3CCC4)n[nH]c2=S)c1,"inconclusive: 35.5 µM [inhibitor, single point]"
12,Nn1cnn(Cc2ccccc2)c1=S,inactive
13,COCCN1C=C2C(=O)C(C)(OC(=O)C3CCCC3)C(=O)C(c3ccccc3)=C2C=C1CCCC(=O)OC (centres undefined),"inconclusive: 3.98 µM [inhibitor, single point]"
14,Cc1cc(C(=O)c2cnc(/N=C/N(C)C)s2)c(F)cc1Cl,"inconclusive: 25.1 µM [inhibitor, single point]"
15,COc1ccc(CCNc2nnc(Sc3nnnn3-c3ccccc3)s2)cc1OC,inactive
16,CC(C)CN(C(=O)c1ccco1)c1nc2ccccc2s1,"inconclusive: 39.8 µM [inhibitor, single point]"
17,CC(=O)Nc1cccc(-c2cn3ccc(C)cc3n2)c1,"inconclusive: 25.1 µM [inhibitor, partial curve]"
18,CCOC(=O)c1cc2cc3ccccc3cc2[nH]1,"inconclusive: 0.794 µM [inhibitor, partial curve]"
19,CCOC(=O)C1(CCCc2ccccc2)CCN(C(=O)C2=C(C)OCCO2)CC1,inactive
20,COc1cc(/C=C/C(=O)OCC(=O)NC(=O)NC(C)C)ccc1O,"inconclusive: 31.6 µM [inhibitor, partial curve]"
21,CCOC(=O)C1(C)C=C(Nc2cccc(OC)c2)C(=O)N1c1ccccc1 (centres undefined),"inconclusive: 35.5 µM [inhibitor, single point]"
22,O=C(CCCN1C(=O)c2cccc3cccc(c23)C1=O)N1CCN(c2ncccn2)CC1,inactive
23,COc1ccc(NC(=O)c2cc3c(=O)n(C)c4ccccc4c3n2C)cc1Cl,"inconclusive: 7.08 µM [inhibitor, single point]"
24,COc1ccccc1-c1cn[nH]c(=S)n1,inactive
25,CC(C)NC(=O)CC(=O)N/N=C/c1cccs1,"inconclusive: 28.2 µM [inhibitor, partial curve]"

row,Structure (SMILES),Potency
1,COc1ccc(Nc2ccncc2[N+](=O)[O-])cc1,inactive
2,Cc1ccnc(SCc2cc(=O)c(OC(=O)c3cc([N+](=O)[O-])ccc3Cl)co2)n1,"inconclusive: 25.1 µM [inhibitor, single point]"
3,CCc1ccc2oc(-c3cc(N)ccc3Cl)nc2c1,"inconclusive: 25.1 µM [inhibitor, partial curve]"
4,CCCS(=O)(=O)NCCc1cc2ccc(C)cc2[nH]c1=O,inactive
5,Cc1cc(N2CCN(c3ccc(F)cc3)CC2)n2ncnc2n1,inactive
6,Oc1ccc(-c2csc(-c3ccccc3)n2)cc1O,"inconclusive: 35.5 µM [inhibitor, single point]"
7,COc1ccc(CN2CCCCCC2)c(C)c1C,inactive
8,Cc1ccc(NC(=O)c2sc3nc(CCl)[nH]c(=O)c3c2C)c(C)c1,"inconclusive: 35.5 µM [inhibitor, single point]"
9,CN1C(=O)/C(=C/c2ccc(C(=O)NC3CCCC3)cc2)Oc2ccccc21,"inconclusive: 7.94 µM [inhibitor, partial curve]"
10,CN1Cc2sc(N)c(C#N)c2CC1(C)C,"inconclusive: 28.2 µM [inhibitor, partial curve]"
11,COc1cc(-c2nc3ccccn3c2/N=C/c2cc(OC)c(O)cc2Cl)ccc1O,"inconclusive: 14.1 µM [inhibitor, partial curve]"
12,CC(C)N1CSC(=S)N(Cc2ccccc2)C1,inactive
13,Cc1[nH]c(-c2ccc3c(c2)OCO3)nc1C(=O)O,"inconclusive: 31.6 µM [inhibitor, partial curve]"
14,COc1ccc2[nH]c3c(NCc4ccco4)ncnc3c2c1,"inconclusive: 22.4 µM [inhibitor, partial curve]"
15,COc1ccc(-c2cc(C(F)(F)F)nc(S(=O)(=O)CCC(=O)N3CCOCC3)n2)cc1,"inconclusive: 31.6 µM [inhibitor, partial curve]"
16,Cc1cc(N2CCN(C(=O)c3ccco3)CC2)n2ncc(-c3ccccc3)c2n1,"inconclusive: 39.8 µM [inhibitor, single point]"
17,CN(C(=O)C1CCCO1)c1nnc(-c2cnccn2)s1 (centres undefined),"inconclusive: 39.8 µM [inhibitor, single point]"
18,CN(Cc1ccccc1)c1oc(-c2ccco2)nc1C#N,"inconclusive: 31.6 µM [inhibitor, partial curve]"
19,Cc1cc2nc(C3CCN(Cc4nnnn4Cc4ccccc4)CC3)[nH]c2cc1C,inactive
20,CCOC(=O)c1sc(Nc2nc3c(OC)cccc3s2)cc1C,inactive
21,Cc1cc(C)cc(OCC(=O)Nc2ccccc2C(=O)NCc2ccco2)c1,"inconclusive: 39.8 µM [inhibitor, single point]"
22,N#CCCn1cc(/C=N/O)c(-c2ccc(-c3ccccc3)cc2)n1,inactive
23,Cc1ccc(-c2noc(CCC(=O)Nc3ccccc3C)n2)cc1,inactive
24,O=C(Nc1ccc(S(=O)(=O)Nc2ncccn2)cc1)C1=NN(c2ccccc2)C(=O)CC1,"inconclusive: 20 µM [inhibitor, partial curve]"
